Over roughly 33,000 sequences, “E-score (-0.5 to 0.5)” has its median near -0.032; the highest 2% begin near 0.36. Some of the results follow.
Molecular target: T1, Sko1 (UniProt Q02100)
T1 sequence: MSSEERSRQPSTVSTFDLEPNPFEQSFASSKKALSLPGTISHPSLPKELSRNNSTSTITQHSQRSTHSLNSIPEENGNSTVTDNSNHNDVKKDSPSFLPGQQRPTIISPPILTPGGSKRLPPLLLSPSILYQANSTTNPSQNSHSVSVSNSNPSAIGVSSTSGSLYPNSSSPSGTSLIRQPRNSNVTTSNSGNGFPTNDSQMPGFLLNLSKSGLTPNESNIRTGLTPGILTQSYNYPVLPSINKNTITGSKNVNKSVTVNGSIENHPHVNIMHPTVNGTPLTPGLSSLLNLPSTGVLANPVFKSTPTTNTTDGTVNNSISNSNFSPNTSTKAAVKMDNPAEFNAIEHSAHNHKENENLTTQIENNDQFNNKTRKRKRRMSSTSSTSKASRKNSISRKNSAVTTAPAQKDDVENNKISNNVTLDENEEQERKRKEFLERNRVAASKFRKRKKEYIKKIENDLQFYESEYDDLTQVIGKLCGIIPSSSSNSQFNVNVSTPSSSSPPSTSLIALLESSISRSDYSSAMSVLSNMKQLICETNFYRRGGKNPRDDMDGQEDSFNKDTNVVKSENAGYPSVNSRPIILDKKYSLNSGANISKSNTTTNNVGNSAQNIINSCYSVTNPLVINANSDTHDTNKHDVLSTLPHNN
Experiment: PBM E-score (8-mer binding enrichment) (E-score (-0.5 to 0.5)); higher = stronger / more preferred TF binding; most listed sequences are background and not binding sites
Settings: protein concentration: 200 nM; construct: GST-full length
Outline: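 Masliner-normalised scans of fluorescent anti-GST signal were the basis for scoring. That signal came from GST-tagged yeast transcription factors applied at about 100-200 nM to double-stranded universal all-10-mer Agilent arrays on fresh or once-stripped slides. Each ungapped eight-base word, pooled with its reverse complement, received an E-score from the Universal PBM Analysis Suite.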

Sequence	PBM E-score
ATGTGTTG	0.203
AACCCGCA	-0.194
AGGCTTGG	-0.168
GAGTCGAC	-0.0428
ATAAATCG	0.119
AGAAAGTC	-0.163
ACATAGTC	0.0801
ACCTGTGC	-0.144
GGTTGCTA	-0.024
CGAGTGAG	-0.158
GTCTTCGA	-0.0774
AAGAGTGA	0.0204
TCTCCAGA	-0.2
GCGTCATA	0.481
AGAACACT	0.0611
CTACCAAA	0.00063
ATAGCGAG	-0.0959
GACAGGGC	-0.196
GACTGGGA	-0.208
ACTCAGCA	-0.0686
CTCGTCGC	-0.106
AGGTCAAA	0.00674
CTCCCAAC	-0.218
GTCGGATA	0.0725
ACTATATC	0.0886

Sequence	PBM E-score
ATGGAGAG	-0.0532
CGAGGCCA	-0.21
CATAGCTA	-0.0746
AATCTCCT	-0.137
GGGGACCC	-0.397
AGGCGACG	-0.0981
CCCGTGAC	0.109
TCAGTCAA	0.0227
GATTGCGC	0.101
CGCGGAAC	-0.165
GGCGACAA	-0.251
ACAGCCAA	-0.1
CAGGGCGC	-0.208
CCCTAAGG	-0.34
AGTGTAAG	-0.158
ACAAGGGC	-0.291
AGCGGAGA	0.0679
ATTTTGGC	0.11
ACAGGCCA	-0.285
ACTTTAAC	-0.115
ACTGGTTA	0.0712
CAGTTGTA	-0.082
CGTCAATC	0.365
ATATCCCA	0.00152
AGAAGTAG	-0.0407

Sequence	PBM E-score
TACCCCGA	-0.221
GTACAAAA	0.236
ACTCAAGG	-0.251
CAACGTTC	0.101
ATTTCACC	0.0643
CTTTCCTA	-0.257
AGGTTGGA	-0.00974
ATCGTGTG	0.0593
CTGTTGAA	-0.0366
CCGTTGAC	-0.0856
ACCGTCTC	0.027
ACACCTAC	-0.0103
AAAGATCA	0.142
ACCGACCA	-0.0462
ATCAAGGA	-0.0586
ATGTAAAA	0.211
CCTTTCCC	-0.184
CCATCTCG	-0.145
CTGGTGTA	-0.0341
ACGATTGG	0.116
AGGGAGCG	-0.363
ATGCCTTC	-0.192
AGCGGTTA	-0.0513
ATATTCAT	0.224
CATACCGG	-0.183

Sequence	PBM E-score
AAAATCAG	0.0818
ATGGATTG	0.174
CTTATCAA	0.142
CTCTTATC	0.125
CAAGGTAA	0.0248
AGTACTAC	0.329
GCTCTACA	-0.192
GGCTGGCA	-0.303
AGAGAAGC	-0.242
AACCATCA	0.132
ATTCATAC	0.124
CTAAAAAA	0.153
ATGAGTGC	0.0631
ATGCAAAT	0.0767
GATTTTAA	0.19
ACAACAGG	0.0881
CTGCACAG	-0.197
AGTTTTGC	0.146
CGGACTAA	0.079
GGGAAGAC	-0.185
TAGCTAAA	0.159
AGGGATGG	-0.156
CACACCAG	-0.0143
AATCCCCA	-0.0808
ACGACGCA	0.334

Sequence	PBM E-score
CTTCGGGC	-0.279
GGTACTAC	-0.0599
GCGAAGCA	0.0215
AGTAGCCC	-0.34
CGCAGTTC	0.0781
CCACTAAG	-0.166
AGTGGCAT	-0.16
TATTGGGA	-0.00016
GGAGGACC	-0.284
AGATTTTA	0.0718
AGGACTGC	-0.25
AGACTCAG	-0.217
CACCGATG	0.152
CCCGATTA	0.0149
GAATTCAC	0.101
GTATCCAA	-0.0692
AAATTAGA	0.174
TCCAATCA	-0.109
CTCGTTGA	-0.137
CACCGGAA	-0.0491
CCATGTGA	-0.12
ATTGACAG	-0.0166
GAAAGTCC	-0.309
ACCTTTGA	-0.162
GCAATCGA	0.123

Sequence	PBM E-score
ACCAGCGA	-0.19
CGGGTAAC	-0.215
ATTACGCG	0.431
ATCCTCAA	0.0793
CAGCCGCA	-0.311
ACAAGGGT	-0.0251
GGAACTCA	-0.237
TCATGGAA	0.191
AGTAGCAC	-0.0478
ACATGGGT	0.0626
AAGGATAG	-0.0679
CTGACCGC	-0.239
TCATAGGA	0.191
TAAAGAAA	0.179
AGCTACGC	0.146
ACGAACGC	0.149
ACGTTAGG	0.244
GGTAGTCA	-0.123
ATCACCAG	-0.148
ACTGAAAA	0.0792
CGCGGATA	0.00703
CTTAGCTA	0.0322
ACGCCTCG	-0.0404
CTTCTCTC	-0.0902
GCGTTGTA	0.057

Sequence	PBM E-score
CCATGAAA	-0.171
CTAGCCAC	-0.198
ACGGATCT	-0.146
GTATTCGA	-0.0882
GTGGGCGA	0.0113
CCGGAGAC	-0.0548
ACAGACCA	-0.115
CAGAGGAC	-0.134
ACTAGTAT	0.19
ATAGAACC	-0.246
AGAAAACG	0.251
GGACTCCA	-0.157
CCCCATGA	-0.0674
CCATCAAG	-0.189
ACCATCCA	-0.204
CACGTATA	0.431
ATTAAGCG	0.0319
CCTGGGCA	-0.295
CGTCCGGA	-0.109
ACGTCTAT	0.338
AGCGTTCA	-0.139
GGCAAACC	-0.231
